In all, about 2,900 compounds were measured (“NF-kB SEAP reporter activity, fold change vs agonist alone”: median about 0.99, highest 2% from about 2.6 on). This is one part of the list.
How the values were obtained:
[1] = tested on: RAW-Dual; experiment: NF-kB SEAP reporter activity, fold change vs agonist alone; higher = enhanced NF-kB activity
In short: (§1)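 Library stock was pin-tooled at 50 nL into 384-well plates of RAW-Dual macrophages (50,000 cells/well, DMEM), followed 1 h later by a PRR agonist, and the cells were kept at 37 °C, 5% CO2. Supernatant collected after 20 hours was read for IRF by QuantiLuc luminescence and for NF-κB by QuantiBlue absorbance at 620 nm. Reporter activity is fold change over agonist-alone wells, and a well counted as cytotoxic when its IncuCyte confluency was below 70% of agonist controls in both mask sets.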

[2] = tested on: RAW-Dual; experiment: NF-kB SEAP reporter activity, fold change vs agonist alone; cytotoxicity flag (confluency mask): not cytotoxic; higher = enhanced NF-kB activity
In short: as §1

[3] = tested on: RAW-Dual; experiment: NF-kB SEAP reporter activity, fold change vs agonist alone; cytotoxicity flag (confluency mask): cytotoxic (confluency <70% of control); higher = enhanced NF-kB activity
In short: as §1

[4] = library stock concentration (final ~1000-fold dilution): 10 mM, cytotoxicity flag (confluency mask): not cytotoxic, agonist: Imiquimod (TLR7) […]
[5] = library stock concentration (final ~1000-fold dilution): 10 mM, cytotoxicity flag (confluency mask): not cytotoxic, agonist: MPLA (TLR4) […]
[6] = agonist: ODN 1826 (TLR9) 0.5 ug/mL
[7] = agonist: Pam2CSK4 (TLR2/6) 0.1 ug/mL
[8] = agonist: Pam3CSK4 (TLR2/1) 0.1 ug/mL
[9] = library stock concentration (final ~1000-fold dilution): 10 mM, cytotoxicity flag (confluency mask): cytotoxic (confluency <70% of control), agonist: Imiquimod (TLR7) […]
[10] = library stock concentration (final ~1000-fold dilution): 10 mM, cytotoxicity flag (confluency mask): cytotoxic (confluency <70% of control), agonist: MPLA (TLR4) […]

With `Cc1cnc(-c2cc(N3CCN(C(=O)CCS(C)(=O)=O)CC3)ncc2Cl)c(C)c1` the “NF-kB SEAP reporter activity” value [1, 4] was 1.06 and the “NF-kB SEAP reporter activity” value [1, 5] was 1.04.
In the case of `OCC1NCC(O)C(O)C1O` (stereo not given) (library stock concentration (final ~1000-fold dilution): 10 mM), the “NF-kB SEAP reporter activity” value ([2]; agonist: LPS (TLR4) 0.1 ug/mL) is reported as 0.778, the “NF-kB SEAP reporter activity” value [2, 6] is reported as 0.78 and the “NF-kB SEAP reporter activity” value [2, 7] is reported as 0.788. For the same compound, the “NF-kB SEAP reporter activity” value [2, 8] was 0.692.
In the case of `OCC1NCC(O)C(O)C1O` (stereo not given), the “NF-kB SEAP reporter activity” value [1, 4] is reported as 0.542 and the “NF-kB SEAP reporter activity” value [1, 5] is reported as 0.814.
With `CCC(C)(Oc1ccc(C2(c3ccc(OC(C)(CC)C(=O)O)cc3)CCCCC2)cc1)C(=O)O` (stereo not given) the “NF-kB SEAP reporter activity” value [1, 4] was 0.648 and the “NF-kB SEAP reporter activity” value [1, 5] was 0.731.
With `CCC(C)(Oc1ccc(C2(c3ccc(OC(C)(CC)C(=O)O)cc3)CCCCC2)cc1)C(=O)O` (stereo not given) (library stock concentration (final ~1000-fold dilution): 10 mM) the “NF-kB SEAP reporter activity” value ([2]; agonist: LPS (TLR4) 0.1 ug/mL) was 1.17, the “NF-kB SEAP reporter activity” value [2, 6] was 0.977 and the “NF-kB SEAP reporter activity” value [2, 7] was 1.1. For the same compound, the “NF-kB SEAP reporter activity” value [2, 8] was 1.03.
In the case of `CNc1cc(-c2cccc(Cl)c2Cl)nc(N)n1` (library stock concentration (final ~1000-fold dilution): 10 mM), the “NF-kB SEAP reporter activity” value ([2]; agonist: LPS (TLR4) 0.1 ug/mL) is reported as 1.13, the “NF-kB SEAP reporter activity” value [2, 6] is reported as 0.836 and the “NF-kB SEAP reporter activity” value [2, 7] is reported as 0.444. The “NF-kB SEAP reporter activity” value [2, 8] was 0.699.
With `CNc1cc(-c2cccc(Cl)c2Cl)nc(N)n1` the “NF-kB SEAP reporter activity” value [1, 4] was 0.948 and the “NF-kB SEAP reporter activity” value [1, 5] was 1.13.
In the case of `COc1cc2nccc(Oc3ccc(NC(=O)NC4CC4)c(Cl)c3)c2cc1C(N)=O` (library stock concentration (final ~1000-fold dilution): 10 mM), the “NF-kB SEAP reporter activity” value ([2]; agonist: LPS (TLR4) 0.1 ug/mL) is reported as 0.678, the “NF-kB SEAP reporter activity” value [2, 6] is reported as 0.503 and the “NF-kB SEAP reporter activity” value [2, 7] is reported as 0.417. The “NF-kB SEAP reporter activity” value [2, 8] was 0.484.
For `COc1cc2nccc(Oc3ccc(NC(=O)NC4CC4)c(Cl)c3)c2cc1C(N)=O`, the “NF-kB SEAP reporter activity” value [1, 4] was 0.643 and the “NF-kB SEAP reporter activity” value [1, 5] was 0.7.
In the case of `c1nc2c(NC3CCCCC3)nc(Nc3ccc(N4CCOCC4)cc3)nc2[nH]1`, the “NF-kB SEAP reporter activity” value [1, 9] is reported as 0.378 and the “NF-kB SEAP reporter activity” value [1, 10] is reported as 0.743.
In the case of `c1nc2c(NC3CCCCC3)nc(Nc3ccc(N4CCOCC4)cc3)nc2[nH]1` (library stock concentration (final ~1000-fold dilution): 10 mM), the “NF-kB SEAP reporter activity” value ([3]; agonist: LPS (TLR4) 0.1 ug/mL) is reported as 0.369, the “NF-kB SEAP reporter activity” value [3, 6] is reported as 0.24 and the “NF-kB SEAP reporter activity” value [3, 7] is reported as 0.102. For the same compound, the “NF-kB SEAP reporter activity” value [3, 8] was 0.138.
With `COc1nc(OCc2cccc(-c3ccccc3)c2C)ccc1CNCCNC(C)=O` (library stock concentration (final ~1000-fold dilution): 10 mM) the “NF-kB SEAP reporter activity” value ([3]; agonist: LPS (TLR4) 0.1 ug/mL) was 1.32, the “NF-kB SEAP reporter activity” value [3, 6] was 0.625 and the “NF-kB SEAP reporter activity” value [3, 7] was 1.26. The “NF-kB SEAP reporter activity” value [3, 8] was 0.793.
In the case of `COc1nc(OCc2cccc(-c3ccccc3)c2C)ccc1CNCCNC(C)=O`, the “NF-kB SEAP reporter activity” value [1, 9] is reported as 1.47 and the “NF-kB SEAP reporter activity” value [1, 10] is reported as 1.74.
With `CCCOc1ccc(C(=O)OCCN(CC)CC)cc1N.Cl` (library stock concentration (final ~1000-fold dilution): 10 mM) the “NF-kB SEAP reporter activity” value ([2]; agonist: LPS (TLR4) 0.1 ug/mL) was 1.12, the “NF-kB SEAP reporter activity” value [2, 6] was 0.834 and the “NF-kB SEAP reporter activity” value [2, 7] was 0.987. The “NF-kB SEAP reporter activity” value [2, 8] was 1.1.
In the case of `CCCOc1ccc(C(=O)OCCN(CC)CC)cc1N.Cl`, the “NF-kB SEAP reporter activity” value [1, 4] is reported as 0.739 and the “NF-kB SEAP reporter activity” value [1, 5] is reported as 0.833.
For `Cc1c(-c2ccccc2)oc2c(C(=O)OCCN3CCCCC3)cccc2c1=O.Cl` (library stock concentration (final ~1000-fold dilution): 10 mM water), the “NF-kB SEAP reporter activity” value ([2]; agonist: LPS (TLR4) 0.1 ug/mL) was 1.36, the “NF-kB SEAP reporter activity” value [2, 6] was 1.15 and the “NF-kB SEAP reporter activity” value [2, 7] was 1.13. For the same compound, the “NF-kB SEAP reporter activity” value [2, 8] was 1.13.
`Cc1c(-c2ccccc2)oc2c(C(=O)OCCN3CCCCC3)cccc2c1=O.Cl` was tested, and the “NF-kB SEAP reporter activity” value ([1]; library stock concentration (final ~1000-fold dilution): 10 mM water, cytotoxicity flag (confluency mask): not cytotoxic, agonist: Imiquimod (TLR7) […]) was 0.854 and the “NF-kB SEAP reporter activity” value ([1]; library stock concentration (final ~1000-fold dilution): 10 mM water, cytotoxicity flag (confluency mask): not cytotoxic, agonist: MPLA (TLR4) […]) was 0.985.
